Source: US20130165489A1, “Small Molecule Modulators of HIV-1 Capsid Stability and Methods Thereof” (The Trustees of the University of Pennsylvania, priority 2010, published 2013)

Experiments:
[1] = test system: target cells (U87 CD4-CXCR4); assay: LDH release cytotoxicity, target cells; format: cell-based
Text: Moreover, these compounds appeared to be working at different stages of the viral life-cycle—one at an early post-entry event (CMPD-A) and the other at an assembly or post-integration event in HIV-1 replication (CMPD-D).

[2] = Method: From this initial screen, one compound 4,4′-[dibenzo[b,d]furan-2,8-diylbis(5-phenyl-1H-imidazole-4,2-diyl)]dibenzoic acid, referred to as CMPD-A, was identified as having anti-HIV activity of 33.3±0.31 μM on the infection of recombinant luciferase-containing HIV-1 viruses (HIV-1NL4-3 backbone) pseudotyped with the envelope protein from HIV-1YU-2. […] Although production of pseudovirions by transfection and the ability to analyze inhibition in a single-round infection are advantageous for addressing the inhibitory effect of a given compound, this type of assay cannot address the effects of multiple rounds of infection and cell-to-cell spread on the efficacy of the test compounds. CMPD-A was evaluated for inhibition of replication of fully infections virus (FIG. 8B). The compound was assessed against fully infectious HIV-1IIIB replicating in the P4-R5 MAGI cell line. […] The P4-R5 MAGI cell line is a HeLa derivative and is therefore not a natural target cell type, only being able to support infection by HIV-1 by overexpression of CD4, CXCR4 and CCR5. Moreover, HIV-1IIIB is a laboratory adapted virus, having been multiply passaged in culture, and lacks some of the accessory proteins. CMPD-A was evaluated for inhibition of a primary isolate, HIV-192BR030, replicating in primary PBMCs (FIG. 8C).
[3] = test system: HIV-1 pseudotyped with the envelope glycoprotein from murine leukemia virus; assay: Single-round infection assay, HIV-1 pseudotyped with A-MLV envelope
Method: Using the Effectene transfection reagent (Qiagen), 293T human embryonic kidney cells were cotransfected with plasmids expressing the pCMVΔP1ΔenvpA HIV-1 Gag-Pol packaging construct, the wild-type or mutant HIV-1YU2 envelope glycoproteins or the envelope glycoproteins of the control amphotropic murine leukemia virus (A-MLV), and the firefly luciferase-expressing vector at a DNA ratio of 1:1:3 μg. For the production of viruses pseudotyped with the A-MLV glycoprotein, a rev-expressing plasmid was added. The single-round, replication-defective viruses in the supernatants were harvested 24-30 hours after transfection, filtered (0.45 μm), aliquoted, and frozen at −80° C. until further use. The reverse transcriptase (RT) activities of all viruses were measured as described previously (Rho et al., 1981, Virology 112:355-60). […]
The HSB method (Kortagere et al., 2009, Pharm. Res. 26:1001-11; Kortagere et al., 2010, Environ. Health Perspect. 118(10):1412-17; Kortagere et al., 2006, J. Comput. Aided Mol. Des. 20:789-802; Kortagere et al., 2010, J. Chem. Inf. Model 50:840-49 and Peng et al., 2009, Bioorg. Med. Chem. 17:6442-50) was used to design small-molecule inhibitors targeted to the NTD-NTD hexameric interface of HIV-1 CA. […] The docked complexes are then scored based on a number of physicochemical parameters to indicate high-ranking molecules. […]

[4] = test system: recombinant luciferase-containing HIV-1 viruses (HIV-1NL4-3 backbone) pseudotyped with the envelope protein from HIV-1HxBc2; assay: Single-round infection assay, infection of U87 CD4-CXCR4 target cells in presence of compound
Text: A single-round infection assay was used in order to determine whether the compounds identified by the HSB method affected early events (such as uncoating) or late events (such as assembly) or both. Details of the experimental procedure have been published (Rossi et al., Retrovirology 2008, 5:89; Cocklin et al., J. Virol. 2007, 81(7):3645-3648; Martin-Garcia et al., 2006, Virology 2006, 346(1):169-179; Martin-Garcia et al., 2005, J. Virol. 2005, 79(11):6703-6713).
Effects on assembly were identified by incubating the viral producer cells in the presence of the compound. Supernatants containing virus (that encodes for firefly luciferase as a reporter gene) were then diluted 10-fold and used to infect the target cells (U87 CD4-CXCR4). Compound-induced aberrant assembly was then manifested as a decrease in infectivity of the target cells, as compared to those infected with virus from untreated cells. Similarly, uncoating effects could be determined by producing virus in the absence of compound, then infecting target cells in the presence of compounds (U87 CD4-CXCR4).

For Cc1ccc(C(C(=O)NC2CCCCC2)N(Cc2ccccc2Cl)C(=O)c2snc(C(=O)NC3CCCCC3)c2N)o1 (centres unmarked) [CMPD-D, 4-amino-N5-(2-chlorobenzyl)-N3-cyclohexyl-N5-(2-(cyclohexylamino)-1-(5-methylfuran-2-yl)-2-oxoethyl)isothiazole-3,5-dicarboxamide], the “LDH release versus untreated cells” value [1] was “Neither CMPD-A nor CMPD-D promoted LDH release”.

For O=C(O)c1ccc(-c2nc(-c3ccc4oc5ccc(-c6nc(-c7ccc(C(=O)O)cc7)[nH]c6-c6ccccc6)cc5c4c3)c(-c3ccccc3)[nH]2)cc1 [CMPD-A, 4,4′-(4,4′-(dibenzo[b,d]furan-2,8-diyl)bis(5-phenyl-1H-imidazole-4,2-diyl))dibenzoic acid], the “availability and stability in the media” value [2] was “available and stable in the media”, the “inhibition of A-MLV envelope pseudotyped HIV-1” value [3] was “inhibiting HIV-1 pseudotyped with the envelope glycoprotein from murine leukemia virus” and the “antiretroviral activity, early post-entry event” value [4] was “significant antiretroviral activity”. For the same compound, the “LDH release versus untreated cells” value [1] was “Neither CMPD-A nor CMPD-D promoted LDH release”.
